The list shows a part of the results.

First the molecules themselves.
B1: PhoQ; a variant is named by its letters at X, in order, P23837 (parent)
chain: MKKLLRLFFPLSLRVRFLLATAAVVLVLSLAYGMVALIGYSVSFDKTTFRLLRGESNLFYTLAKWENNKLHVELPENIDKQSPTMTLIYDENGQLLWAQRDVPWLMKMIQPDWLKSNGFHEIEADVNDTSLLLSGDHSIQQQLQEVREDDDDAEMTHSVAVNVYPATSRMPKLTIVVVDTIPVELKSSYMVWSWFIYVLSANLLLVIPLLWVAAWWSLRPIEALAKEVRELEEHNRELLNPATTRELTSLVRNLNRLLKSERERYDKYRTTLTDLTHSLKTPLXXLQXXLRSLRSEKMSVSDAEPVMLEQISRISQQIGYYLHRASMRGGTLLSRELHPVAPLLDNLTSALNKVYQRKGVNISLDISPEISFVGEQNDFVEVMGNVLDNACKYCLEFVEISARQTDEHLYIVVEDDGPGIPLSKREVIFDRGQRVDTLRPGQGVGLAVAREITEQYEGKIVAGESMLGGARMEVIFGRQHSAPKDE

The variants in the test derive from B1. Briefly: enrichment ratio after two sorts for PhoP signalling (ratio (wild type AVST 3.29)); higher = more functional. To be noted: with PhoP (E. coli).
As for LWGR, the enrichment ratio is ≤ 0.25.

For QSNQ, the enrichment ratio is 4.72.

As to FSTW, the enrichment ratio is ≤ 0.25.

For YASR, the enrichment ratio was ≤ 0.25.

In the case of MAPL, the enrichment ratio was ≤ 0.25.

As to KHWM, the enrichment ratio is ≤ 0.25.

Consider WAYF, for which the enrichment ratio was ≤ 0.25.

With MHHT, the enrichment ratio was ≤ 0.25.

Regarding LIPP, the enrichment ratio was ≤ 0.25.

In the case of REEG, the enrichment ratio was ≤ 0.25.

For FTVP, the enrichment ratio is ≤ 0.25.

Take YIPF: the enrichment ratio is ≤ 0.25.

Take VMPL: the enrichment ratio was ≤ 0.25.

On to AKQP, for which the enrichment ratio was ≤ 0.25.

For HQKA, the enrichment ratio was ≤ 0.25.

In the case of WMPF, the enrichment ratio is ≤ 0.25.

With WWPT, the enrichment ratio is ≤ 0.25.

On to KYWM, for which the enrichment ratio is ≤ 0.25.

Consider SHQE, for which the enrichment ratio is ≤ 0.25.

FCSP: the enrichment ratio is ≤ 0.25.

Take LNWW: the enrichment ratio was ≤ 0.25.

Take VGYA: the enrichment ratio is ≤ 0.25.

As for TMLD, the enrichment ratio is ≤ 0.25.

Take MDLL: the enrichment ratio was ≤ 0.25.

In the case of KEAW, the enrichment ratio is ≤ 0.25.

With PCHL, the enrichment ratio is ≤ 0.25.

With NFCV, the enrichment ratio was ≤ 0.25.

Turning to GFPG, the enrichment ratio was ≤ 0.25.

Take PMKI: the enrichment ratio was ≤ 0.25.

With HGYV, the enrichment ratio is ≤ 0.25.

On to IFKF, for which the enrichment ratio was ≤ 0.25.

Regarding DQNA, the enrichment ratio was ≤ 0.25.

For the variant EVMP, the enrichment ratio was ≤ 0.25.

In the case of DEAS, the enrichment ratio is ≤ 0.25.

As to PDPY, the enrichment ratio is ≤ 0.25.

Turning to NFDN, the enrichment ratio was ≤ 0.25.

On to SCMK, for which the enrichment ratio was 6.72.

Consider YFRD, for which the enrichment ratio was ≤ 0.25.

Regarding TCNC, the enrichment ratio came out at 14.3.

With GKCP, the enrichment ratio is ≤ 0.25.

As for QVGV, the enrichment ratio was ≤ 0.25.

For the variant NVKS, the enrichment ratio is ≤ 0.25.

As to TINP, the enrichment ratio came out at 4.79.

Take TFVQ: the enrichment ratio was ≤ 0.25.

On to TKIA, for which the enrichment ratio worked out at 2.15.

For RCPW, the enrichment ratio is ≤ 0.25.

As for KEGR, the enrichment ratio was ≤ 0.25.

For KITN, the enrichment ratio is ≤ 0.25.

As for ECDT, the enrichment ratio is ≤ 0.25.

CFSF: the enrichment ratio was ≤ 0.25.

As for EVCV, the enrichment ratio is ≤ 0.25.

Turning to VCKQ, the enrichment ratio was ≤ 0.25.

Regarding RQSG, the enrichment ratio is ≤ 0.25.

As for DTVY, the enrichment ratio is ≤ 0.25.

For IDPC, the enrichment ratio is ≤ 0.25.

With DLCY, the enrichment ratio was ≤ 0.25.

Consider PEDA, for which the enrichment ratio is ≤ 0.25.

Take RPLY: the enrichment ratio is ≤ 0.25.

With SKTQ, the enrichment ratio was ≤ 0.25.

Consider FDPK, for which the enrichment ratio was ≤ 0.25.

Take IDSH: the enrichment ratio was ≤ 0.25.

Consider TFHN, for which the enrichment ratio was ≤ 0.25.

Turning to VMQC, the enrichment ratio is ≤ 0.25.

Consider YQRN, for which the enrichment ratio was ≤ 0.25.

As to ECTY, the enrichment ratio is ≤ 0.25.

For the variant HKYH, the enrichment ratio is ≤ 0.25.

For LSVK, the enrichment ratio was ≤ 0.25.

With NNRY, the enrichment ratio was ≤ 0.25.

Turning to WFRR, the enrichment ratio is ≤ 0.25.

Turning to ISQN, the enrichment ratio is ≤ 0.25.

Regarding SNSK, the enrichment ratio was ≤ 0.25.

FVCM: the enrichment ratio was 2.91.

SFHM: the enrichment ratio is ≤ 0.25.

Regarding MVFF, the enrichment ratio is ≤ 0.25.

Consider RSWK, for which the enrichment ratio is ≤ 0.25.

In the case of NTWM, the enrichment ratio is ≤ 0.25.

As to MQCE, the enrichment ratio is ≤ 0.25.

Take GWFN: the enrichment ratio was ≤ 0.25.

Take NCPI: the enrichment ratio is ≤ 0.25.

On to RFLD, for which the enrichment ratio is ≤ 0.25.

For the variant PICM, the enrichment ratio was ≤ 0.25.

With YETG, the enrichment ratio is ≤ 0.25.

With LMEY, the enrichment ratio was ≤ 0.25.

In the case of HSRV, the enrichment ratio is ≤ 0.25.

For the variant QMTP, the enrichment ratio was ≤ 0.25.

With SFDD, the enrichment ratio is ≤ 0.25.

With LIVK, the enrichment ratio is ≤ 0.25.

As to DYTL, the enrichment ratio was ≤ 0.25.

As to PEHA, the enrichment ratio is ≤ 0.25.

On to QSAT, for which the enrichment ratio is ≤ 0.25.

For the variant GNPG, the enrichment ratio was ≤ 0.25.

In the case of NRCF, the enrichment ratio was ≤ 0.25.

As for YRFP, the enrichment ratio is ≤ 0.25.

With MQHN, the enrichment ratio was ≤ 0.25.

As for PDVR, the enrichment ratio was ≤ 0.25.

With FEQT, the enrichment ratio was ≤ 0.25.

For SGPR, the enrichment ratio is ≤ 0.25.

Consider FHKR, for which the enrichment ratio was ≤ 0.25.

As to EVYN, the enrichment ratio is ≤ 0.25.

For the variant HFTD, the enrichment ratio was ≤ 0.25.

Take VRQN: the enrichment ratio was ≤ 0.25.

With FQRW, the enrichment ratio is ≤ 0.25.

Take RARN: the enrichment ratio was ≤ 0.25.

With SCVH, the enrichment ratio is 8.93.

As for AHQA, the enrichment ratio was ≤ 0.25.

Regarding TPFV, the enrichment ratio is ≤ 0.25.

Take LTIP: the enrichment ratio was ≤ 0.25.

For AVTC, the enrichment ratio worked out at 6.81.

VATC: the enrichment ratio was ≤ 0.25.

Consider MLLL, for which the enrichment ratio came to 6.44.

As to WQKA, the enrichment ratio is ≤ 0.25.

In the case of SECD, the enrichment ratio was 8.24.

As for KGPL, the enrichment ratio is ≤ 0.25.

As for RPCQ, the enrichment ratio was ≤ 0.25.

For the variant GQIC, the enrichment ratio was ≤ 0.25.

Turning to ESWP, the enrichment ratio is ≤ 0.25.

Regarding LTRG, the enrichment ratio is ≤ 0.25.

In the case of EANN, the enrichment ratio is ≤ 0.25.

For the variant NVQG, the enrichment ratio is ≤ 0.25.

On to APLL, for which the enrichment ratio was ≤ 0.25.

QSRT: the enrichment ratio is ≤ 0.25.

For LGTR, the enrichment ratio is ≤ 0.25.

Take YTIR: the enrichment ratio is ≤ 0.25.

For the variant KEDY, the enrichment ratio is ≤ 0.25.

Take WKDR: the enrichment ratio is ≤ 0.25.

On to PHIK, for which the enrichment ratio was ≤ 0.25.

Take IPLG: the enrichment ratio is ≤ 0.25.

Take GEGK: the enrichment ratio is ≤ 0.25.

With GSMP, the enrichment ratio was ≤ 0.25.

TGMN: the enrichment ratio was determined as 34.8.

On to NVHS, for which the enrichment ratio is ≤ 0.25.

As for MFFR, the enrichment ratio was ≤ 0.25.

For the variant YSTR, the enrichment ratio is ≤ 0.25.

Turning to FILI, the enrichment ratio was 3.04.

Turning to KNLT, the enrichment ratio was ≤ 0.25.

As to KSDY, the enrichment ratio was ≤ 0.25.

Consider WWRF, for which the enrichment ratio is ≤ 0.25.

On to QVTQ, for which the enrichment ratio was ≤ 0.25.

As to YQFF, the enrichment ratio was ≤ 0.25.

Consider SSDG, for which the enrichment ratio is ≤ 0.25.

For the variant QAFC, the enrichment ratio was ≤ 0.25.

In the case of YSYN, the enrichment ratio is ≤ 0.25.

As to SFYL, the enrichment ratio is ≤ 0.25.

Regarding VQHD, the enrichment ratio is ≤ 0.25.

WSME: the enrichment ratio is ≤ 0.25.

For GAQW, the enrichment ratio is ≤ 0.25.

For MPHK, the enrichment ratio was ≤ 0.25.

As for VIPI, the enrichment ratio is ≤ 0.25.

For DYGS, the enrichment ratio is ≤ 0.25.

Consider RWNI, for which the enrichment ratio was ≤ 0.25.

In the case of IYAC, the enrichment ratio was ≤ 0.25.

With EQGW, the enrichment ratio was ≤ 0.25.

Consider ELSK, for which the enrichment ratio was ≤ 0.25.
